The supplement of paper PMC3334620
The full ranking holds about 33,000 sequences; the median of “E-score (-0.5 to 0.5)” is about -0.035, and the highest 2% start at about 0.34. This is one part of the list.

target: T1, Mot3 (UniProt P54785); assay: PBM E-score (8-mer binding enrichment) (E-score (-0.5 to 0.5)); higher = stronger / more preferred TF binding; most listed sequences are background and not binding sites; details: protein concentration: 200 nM; construct: GST-full length
T1 sequence: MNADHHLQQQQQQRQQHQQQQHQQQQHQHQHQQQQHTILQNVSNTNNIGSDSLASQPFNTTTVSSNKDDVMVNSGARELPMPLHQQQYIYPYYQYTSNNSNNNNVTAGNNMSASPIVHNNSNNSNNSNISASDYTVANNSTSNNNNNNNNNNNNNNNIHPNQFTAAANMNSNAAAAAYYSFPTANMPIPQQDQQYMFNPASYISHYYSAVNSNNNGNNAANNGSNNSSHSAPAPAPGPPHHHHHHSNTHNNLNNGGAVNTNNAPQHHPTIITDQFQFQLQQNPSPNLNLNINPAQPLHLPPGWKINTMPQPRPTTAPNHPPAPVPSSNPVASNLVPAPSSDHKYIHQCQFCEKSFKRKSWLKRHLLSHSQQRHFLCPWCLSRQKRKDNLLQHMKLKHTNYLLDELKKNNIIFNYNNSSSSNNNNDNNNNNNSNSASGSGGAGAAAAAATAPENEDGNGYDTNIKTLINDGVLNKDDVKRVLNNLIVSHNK
In short: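 E-scores (a modified Wilcoxon-Mann-Whitney statistic) were assigned by the Universal PBM Analysis Suite to every ungapped eight-base word pooled with its reverse complement. The input came from universal all-10-mer Agilent arrays made double-stranded by primer extension and probed with GST-tagged yeast transcription factors at about 100-200 nM. Fluorescent anti-GST detected bound protein, and masliner normalised the scans.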

First: AAAAGTAG
Second: AGCAAGAC
The “PBM E-score” value of the first is higher: 0.0399 for the first, 0.00468 for the second.

Compared with ACCTCATA, AGAGCTCA is lower in “PBM E-score” value: 0.0208 for the first, -0.266 for the second.

Going from CTCGTGTA to GGAGGTAA, the “PBM E-score” value falls from 0.353 to 0.0565.

Going from GCGATCGC to ATGTGTAG, the “PBM E-score” value rises from -0.0352 to 0.303.

Going from GGTCATGA to CGAAACTA, the “PBM E-score” value falls from -0.0434 to -0.136.

First: CGGTCCTC
Second: CAGGTGAC
The “PBM E-score” value of the first is lower: -0.359 for the first, 0.168 for the second.

Compared with ATCTAGAG, AGGCCCCG is higher in “PBM E-score” value: -0.149 for the first, -0.0117 for the second.

Compared with ATCTATGA, CTCATAAA is higher in “PBM E-score” value: -0.0778 for the first, 0.00564 for the second.

First: ATACCTGA
Second: CCTAGACA
The “PBM E-score” value of the first is higher: 0.0776 for the first, -0.19 for the second.

Compared with CGATTTGC, CCTCGCGC is higher in “PBM E-score” value: -0.216 for the first, -0.213 for the second.

Compared with AGTGCAAT, ATTGGTCG is lower in “PBM E-score” value: 0.0975 for the first, -0.14 for the second.

Going from GATTACAA to GGGACAGA, the “PBM E-score” value falls from 0.359 to -0.259.

Compared with CGTACTCA, CAAGACAC is higher in “PBM E-score” value: -0.0725 for the first, 0.162 for the second.

CCGGCGCA and TCAAGCGA are the same in “PBM E-score” value: -0.15 for the first, -0.15 for the second.

First: CGCGACGC
Second: ACAATGAA
The “PBM E-score” value of the first is lower: -0.148 for the first, 0.186 for the second.

Going from GGCTTGAC to CCCCCCAG, the “PBM E-score” value falls from -0.149 to -0.353.

First: AGCCGGTA
Second: CGCTGTGA
The “PBM E-score” value of the first is higher: 0.0147 for the first, -0.0668 for the second.

Compared with AACGTTTA, GCCACTCC is lower in “PBM E-score” value: 0.0821 for the first, -0.324 for the second.

First: GTACGATA
Second: AGAGCTTG
The “PBM E-score” value of the first is higher: 0.0277 for the first, -0.0503 for the second.

Compared with ATGAGAGG, ATTCACAG is higher in “PBM E-score” value: -0.287 for the first, -0.0781 for the second.

First: ACGAAGAA
Second: AGCCCGTA
The “PBM E-score” value of the first is higher: 0.226 for the first, 0.00785 for the second.

First: AAACACCC
Second: CCCGTCGC
The “PBM E-score” value of the first is higher: -0.00769 for the first, -0.217 for the second.

Going from ACGGAATA to ACGCCGGA, the “PBM E-score” value falls from 0.0127 to -0.203.

Compared with CTGCTTCA, CCCCAAGG is lower in “PBM E-score” value: -0.119 for the first, -0.254 for the second.

Going from CAAAATTA to GTTGCACA, the “PBM E-score” value falls from 0.136 to -0.0295.

First: AAATCCAC
Second: CCAACTGA
The “PBM E-score” value of the first is higher: -0.0364 for the first, -0.0452 for the second.

Compared with CGTCATAA, AAACATGT is higher in “PBM E-score” value: 0.0391 for the first, 0.374 for the second.

Going from CGAGATTC to CTGGCTGC, the “PBM E-score” value rises from -0.192 to -0.138.

First: CGTCCCTA
Second: CATGATAC
The “PBM E-score” value of the first is lower: -0.165 for the first, 0.073 for the second.

Compared with CCAAGTAG, CCTGGTCG is higher in “PBM E-score” value: -0.0147 for the first, 0.0914 for the second.

First: ATTTTTTC
Second: ATATACTG
The “PBM E-score” value of the first is higher: 0.134 for the first, -0.00128 for the second.

Going from AGGCAAGC to CTTTTGCC, the “PBM E-score” value falls from 0.489 to 0.33.

Compared with GGACAGCA, ATTTCCTG is higher in “PBM E-score” value: -0.224 for the first, 0.41 for the second.

Going from GAGACCCC to CGAATGAA, the “PBM E-score” value rises from -0.259 to -0.114.

Compared with GATCAGTA, AATTTTGA is higher in “PBM E-score” value: -0.00813 for the first, 0.0309 for the second.

First: CCAAGGAA
Second: ACTGCTAG
The “PBM E-score” value of the first is higher: 0.254 for the first, -0.105 for the second.

Compared with AGACTTTG, AGGGGGGG is lower in “PBM E-score” value: 0.0306 for the first, -0.429 for the second.

Going from ACTATGGA to AAAGTGTC, the “PBM E-score” value rises from -0.191 to 0.0356.

Going from CCCGTCGA to GATAAAAA, the “PBM E-score” value rises from -0.0778 to 0.0449.

Going from CTAAGAGA to GTATGGTA, the “PBM E-score” value rises from 0.0556 to 0.147.

Going from TATAGTCA to CCAGACTC, the “PBM E-score” value falls from 0.188 to -0.324.

Going from AAGCTGAG to GAGAGCAC, the “PBM E-score” value falls from -0.0684 to -0.176.

First: GACAGTAC
Second: CGAGAACC
The “PBM E-score” value of the first is higher: 0.106 for the first, 0.0688 for the second.

First: CCCCTAGG
Second: AAGTTACG
The “PBM E-score” value of the first is lower: -0.297 for the first, 0.0741 for the second.

First: GCAGAAAC
Second: AGATCGCG
The “PBM E-score” value of the first is higher: 0.0137 for the first, -0.184 for the second.

First: GCTAGATA
Second: GACACGCA
The “PBM E-score” value of the first is lower: -0.0892 for the first, 0.246 for the second.

First: ACTAAAAG
Second: CGCAGTGA
The “PBM E-score” value of the first is lower: -0.0421 for the first, 0.0209 for the second.

Compared with CAGGACCC, GTAGATAC is higher in “PBM E-score” value: -0.125 for the first, 0.0401 for the second.

Compared with CACCACTA, CCACGAAC is higher in “PBM E-score” value: -0.0204 for the first, 0.0291 for the second.

Compared with ACATGACG, CCAGGACG is lower in “PBM E-score” value: 0.28 for the first, -0.0369 for the second.

Going from GCAGGTCC to ATTGTAAC, the “PBM E-score” value rises from -0.168 to 0.111.

Compared with GAGTGCAA, AAGACGGC is lower in “PBM E-score” value: 0.157 for the first, -0.265 for the second.

First: ACCGTTCT
Second: CTTAGTTC
The “PBM E-score” value of the first is lower: -0.0931 for the first, -0.00563 for the second.

Going from GAATCTAC to ATGTTATG, the “PBM E-score” value rises from 0.0515 to 0.312.

Going from CGCAATGC to ACCACAGT, the “PBM E-score” value rises from 0.017 to 0.109.

Going from TCAAAGGA to CCATGATA, the “PBM E-score” value falls from -0.0249 to -0.147.

Compared with AGAGACCT, ATACTCAG is higher in “PBM E-score” value: -0.161 for the first, 0.0553 for the second.

Going from GTGCACCA to ACATAAGC, the “PBM E-score” value rises from -0.0778 to 0.201.

First: ACTTTTAG
Second: TGTTAACA
The “PBM E-score” value of the first is lower: 0.17 for the first, 0.361 for the second.

First: CATCTAGA
Second: GGATATAA
The “PBM E-score” value of the first is lower: -0.184 for the first, -0.00709 for the second.

Going from CCTACCCA to ATGGTCGC, the “PBM E-score” value rises from -0.0986 to -0.0225.

Going from CATTGGCC to ACGTGTCG, the “PBM E-score” value rises from -0.152 to 0.24.

Compared with GATTCGGA, GCTAGGAC is lower in “PBM E-score” value: 0.052 for the first, -0.122 for the second.

First: TCCCTCAA
Second: AGATCACT
The “PBM E-score” value of the first is lower: -0.191 for the first, -0.129 for the second.

Going from GGTTCTTA to ACACAGCC, the “PBM E-score” value rises from 0.0492 to 0.219.

Compared with GCTGCGAA, CGACACAA is higher in “PBM E-score” value: -0.0343 for the first, 0.166 for the second.

First: AATCACAT
Second: AAGTACTT
The “PBM E-score” value of the first is higher: 0.0933 for the first, -0.0409 for the second.

Going from AGGTCGTC to TACGTCTA, the “PBM E-score” value rises from -0.0867 to 0.00485.

Compared with CAGATAGC, GGCCGGGA is higher in “PBM E-score” value: -0.281 for the first, -0.257 for the second.

First: ACACACAT
Second: GACTCTCA
The “PBM E-score” value of the first is higher: 0.332 for the first, -0.196 for the second.

Compared with GCCTCGGA, CAGTTGAG is higher in “PBM E-score” value: -0.156 for the first, -0.0885 for the second.

Compared with AAAATGCC, AAATGGTA is higher in “PBM E-score” value: -0.0585 for the first, 0.144 for the second.

Going from CTTGATCC to GTTCACAA, the “PBM E-score” value rises from -0.0987 to 0.129.

Compared with CCTTAGAA, ATGGTTCA is lower in “PBM E-score” value: 0.167 for the first, 0.116 for the second.

First: ATTGACAC
Second: AAATCTGC
The “PBM E-score” value of the first is higher: 0.29 for the first, 0.00064 for the second.

First: GCTCGCCC
Second: CGGAAGGA
The “PBM E-score” value of the first is lower: -0.178 for the first, -0.00256 for the second.

First: ACTGATAC
Second: AACCCGTA
The “PBM E-score” value of the first is higher: -0.0642 for the first, -0.146 for the second.

Going from CTGAGCGC to AAGGAGTC, the “PBM E-score” value rises from -0.201 to -0.103.

Going from GATAACTA to CTAGCATA, the “PBM E-score” value falls from -0.0117 to -0.107.

Compared with AAACCGGT, CCGGTTCA is lower in “PBM E-score” value: -0.0821 for the first, -0.175 for the second.

First: CGTCCGGC
Second: GAAGAGGC
The “PBM E-score” value of the first is higher: -0.0134 for the first, -0.165 for the second.

Going from ATCCAACC to AGCGTAGG, the “PBM E-score” value falls from -0.0825 to -0.12.

Compared with GCGGTCCA, GAGGTCAA is lower in “PBM E-score” value: -0.202 for the first, -0.207 for the second.

Compared with GATGCAAA, CGAGCTAA is higher in “PBM E-score” value: -0.0866 for the first, -0.0607 for the second.

Compared with AGGCCTAT, GCTAATGA is lower in “PBM E-score” value: 0.146 for the first, -0.227 for the second.

First: GCTGAGAC
Second: ACACTTGC
The “PBM E-score” value of the first is lower: -0.107 for the first, -0.00407 for the second.
